In PubChem BioAssay AID1768 (National Center for Advancing Translational Sciences (NCATS), 2009):
In all, about 270,000 compounds went through this assay and about 620 (0.23%) were called active. Inconclusive means that the source gave no clear call. Such entries were picked first, then a sample of the others. The call rests on the fitted dose curve; in most records, active means well fitted inhibition curve with a large enough effect in the polarisation, with a control signal flat (not every such curve was filed as active); inconclusive means small, poorly fitted or top-dose-only effect, or effect the other way, or a change in a side signal; inactive means no such curve, though single readings can be large or run the other way; the % refers to the polarisation. Where the call is inconclusive, the potency comes from a doubtful curve fit. A note “side channel” means that the fit belongs to a control or component signal, not to the main read-out.

biological target: Menin (Homo sapiens) (UniProt O00255); test: qHTS Assay for Inhibitors Targeting the Menin-MLL Interaction in MLL Related Leukemias: Competition With Texas Red Labeled MLL-derived Mutant Peptide; details: fluorescence polarization; series mostly up to 61.6 µM
Potency means the concentration at half of the fitted maximal effect; tags describe the fitted curve by direction and shape or compound fluorescence and quenching.

Sequence of UniProt O00255 (O00255 whole entry, looked up): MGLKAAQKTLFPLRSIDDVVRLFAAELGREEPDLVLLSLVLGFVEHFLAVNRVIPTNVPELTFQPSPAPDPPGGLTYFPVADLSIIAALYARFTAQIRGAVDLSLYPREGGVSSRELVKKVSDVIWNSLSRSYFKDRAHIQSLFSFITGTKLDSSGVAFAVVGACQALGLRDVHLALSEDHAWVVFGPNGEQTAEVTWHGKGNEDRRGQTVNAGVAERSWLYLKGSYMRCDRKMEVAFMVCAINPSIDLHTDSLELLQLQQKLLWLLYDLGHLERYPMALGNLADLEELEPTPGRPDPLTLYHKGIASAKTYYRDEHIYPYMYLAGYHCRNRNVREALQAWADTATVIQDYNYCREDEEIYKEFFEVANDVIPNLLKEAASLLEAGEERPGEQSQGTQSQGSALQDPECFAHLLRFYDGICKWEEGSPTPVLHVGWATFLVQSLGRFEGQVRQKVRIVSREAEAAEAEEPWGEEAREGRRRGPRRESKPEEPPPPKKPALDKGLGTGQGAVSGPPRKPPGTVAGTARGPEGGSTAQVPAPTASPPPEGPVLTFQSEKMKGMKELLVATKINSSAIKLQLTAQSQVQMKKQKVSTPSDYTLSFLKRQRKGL

Structure (SMILES) | Potency
CC(C)(C)NC(=S)Nc1ccc(Nc2ccccc2)cc1 | inconclusive: 28.2 µM [quencher, side channel, partial curve]
CCOc1ccc(CN(CC)C(=O)c2ccc3c(c2)[nH]c(=O)c(=O)n3CC)cc1OC | inconclusive: 25.1 µM [fluorescent, side channel, partial curve]
Cc1cc(C(=O)NNC(=S)Nc2ccccc2)nn1C | inactive
COc1ccc(Cl)cc1NC(=O)c1cc(-c2ccccc2)on1 | inconclusive: 39.8 µM [fluorescent, side channel, single point]
Cc1cc(C)n(-c2nnc(C)n2/N=C/c2ccccc2OCc2ccccc2Cl)n1 | inconclusive: 3.98 µM [fluorescent, side channel, full curve, poor fit]
CN1C(=O)c2ccccc2N(C)C1c1ccc(F)cc1 (configuration not stated) | inactive
Cc1ccc(N(Cc2ccccc2)C(=O)CN2C(=O)NC3(CCCC3)C2=O)cc1 | inconclusive: 15.8 µM [fluorescent, side channel, partial curve]
Cc1ccc(C(=O)Nc2ccccc2N2CCCCC2)cc1 | inconclusive: 22.4 µM [fluorescent, side channel, partial curve]
N#Cc1c(N)n(CCNC(=O)c2cccs2)c2nc3ccccc3nc12 | inconclusive: 31.6 µM [inhibitor, single point]
CCOC(=O)C1(Cc2cccc(F)c2)CCN(C(=O)C2CCC2)CC1 | inconclusive: 35.5 µM [fluorescent, side channel, single point]
COc1ccc(NCC(=O)Nc2ccc(C#N)cc2)cc1Cl | inconclusive: 14.1 µM [quencher, side channel, partial curve]
Cc1c(Cl)cccc1N(Cc1ccc(C(=O)O)cc1)S(=O)(=O)c1ccccc1 | inconclusive: 14.1 µM [quencher, side channel, partial curve]
COc1cccc(CN2CCNC(=O)C2CC(=O)NCCc2nc(C)c(C)s2)c1OC (configuration not stated) | inconclusive: 10 µM [fluorescent, side channel, partial curve]
Cc1ccc(-c2cc(-c3nnc(SCC(=O)N(C)CCC#N)n3N)c3ccccc3n2)cc1 | inactive
Oc1csc(Cc2nc(-c3ccc4ccccc4c3)cs2)n1 | inconclusive: 12.6 µM [quencher, side channel, partial curve]
COc1ccc(CCNC(=O)c2cc(COc3c(C)cccc3C)on2)c(OC)c1 | inconclusive: 25.1 µM [fluorescent, side channel, partial curve]
CCOC(=O)c1nnc(-c2ccccc2)nc1NCc1ccc(Cl)cc1 | inconclusive: 0.708 µM [inhibitor, full curve, poor fit]
Cc1cc(NC(=S)Nc2ccc(C)c(Cl)c2)n[nH]1 | inconclusive: 15.8 µM [quencher, side channel, single point]
O=C(CSc1c2c(nc3cc(Cl)ccc13)CCCC2)NCCN1CCOCC1 | inactive

Structure (SMILES) | Potency
CCCC(=O)Nc1cc(-c2nc3ncccc3o2)ccc1C | inactive
O=C(CNC(=O)c1ccc(Br)cc1)N=Nc1c(O)[nH]c2ccc([N+](=O)[O-])cc12 | inconclusive: 31.6 µM [quencher, side channel, single point]
O=C1[C@H]2[C@@H](c3ccc(F)cc3)N3C(=O)N(c4ccc(Br)cc4)C(=O)[C@@]3(Cc3ccc(Cl)cc3)[C@H]2C(=O)N1C1CCCCC1 | inconclusive: 39.8 µM [inhibitor, single point]
COc1ccc(Cl)cc1/C=C/c1ccc2cccc(O)c2n1 | inconclusive: 11.2 µM [quencher, side channel, partial curve]
O=c1[nH]cc(NCCc2ccccc2)c(=O)[nH]1 | inconclusive: 44.7 µM [inhibitor, partial curve, poor fit]
O=C(CCn1c2c(c3ccccc31)CCCC2)NNC(=O)c1cccc([N+](=O)[O-])c1 | inconclusive: 10 µM [quencher, side channel, partial curve]
CC1CCN(c2cc(N3CCN(C(=O)c4ccc(F)c(F)c4)CC3)c([N+](=O)[O-])cc2F)CC1 | inconclusive: 10 µM [fluorescent, side channel, partial curve]
O=C(Nc1ccc(NC(=O)c2ccc(Cl)cc2Cl)cc1)c1ccc2c(c1)OCO2 | inconclusive: 14.1 µM [fluorescent, side channel, partial curve]
Cc1ccnc(Nc2nc(-c3c(C)nc4sccn34)cs2)c1 | inconclusive: 31.6 µM [quencher, side channel, single point]
COc1ccc(C(C)=O)cc1CC(=O)NC1CCCCCC1 | inconclusive: 22.4 µM [fluorescent, side channel, partial curve]
CCOc1ccc(N2Nc3n[nH]c(N)c3N2)cc1 | inconclusive: 35.5 µM [quencher, side channel, single point]
Nc1[nH]nc2ncc3cc4ccccc4nc3c12 | inconclusive: 17.8 µM [quencher, side channel, single point]
CC1CCCC(C)N1C(=O)Cn1cc(/C=C2/C(=O)Nc3ccccc32)c2ccccc21 (configuration not stated) | inconclusive: 25.1 µM [quencher, side channel, single point]
CCCn1c(SCC(=O)Nc2sc(C)c(C)c2C#N)nnc1C(C)C | inconclusive: 20 µM [fluorescent, side channel, partial curve]
O=C(NC1CCCc2c1cnn2-c1ccc(F)cc1F)c1ccccc1N1CCOCC1 (configuration not stated) | inconclusive: 14.1 µM [inhibitor, partial curve]
CC(=O)NN1C(=O)/C(=C2/Sc3ccccc3N2C)SC1=S | inconclusive: 39.8 µM [fluorescent, side channel, single point]
C[C@@H](C[C@@H](O)[C@H](O)C(C)(C)O)[C@@H]1CC[C@]2(C)C3=CC[C@H]4C(C)(C)C(=O)CC[C@]4(C)[C@H]3CC[C@@]12C | inconclusive: 14.1 µM [fluorescent, side channel, partial curve]
Cc1ccc(C2(c3ccc(C)cc3)CC2C(=O)Nc2ccc([N+](=O)[O-])cc2O)cc1 (configuration not stated) | inconclusive: 11.2 µM [quencher, side channel, partial curve]
Brc1ccccc1/C=N/Nc1ccc2ccccc2n1 | inactive

Structure (SMILES) | Potency
COc1ccccc1NC(=O)Cn1nnc(C(=O)Nc2ccccc2)c1N | inconclusive: 10 µM [quencher, side channel, partial curve]
COc1cccc(NC(=O)n2nc(N)cc2-c2ccc(Cl)cc2)c1 | inconclusive: 28.2 µM [quencher, side channel, single point]
COc1ccc(-n2ncc3c2CC(C)(C)CC3NC(=O)CSc2ccccn2)cc1 (configuration not stated) | inconclusive: 22.4 µM [inhibitor, partial curve]
COc1ccccc1NC(=O)C/C(C)=N/NC(=O)C12CC3CC(CC(C3)C1)C2 | inconclusive: 17.8 µM [fluorescent, side channel, partial curve]
O=C1N/C(=C/c2ccc(Br)cc2)C(O)=C1C=NCc1ccccc1 | inconclusive: 7.94 µM [inhibitor, full curve, poor fit]
Cc1cccc(N2CCN(C(=O)c3cc(S(=O)(=O)N4CCCC4)cn3C)CC2)c1C | inconclusive: 28.2 µM [inhibitor, partial curve, poor fit]
COc1ccccc1NC(=O)C/C(C)=N/NC(=O)COc1c(Br)cc(Br)cc1OC | inconclusive: 15.8 µM [fluorescent, side channel, partial curve]
Cc1ccc(CNC(=O)Nc2cccs2)cc1 | inactive
O=C(Nc1cccc(-c2nc3ccccc3c(=O)o2)c1)c1ccccc1 | inconclusive: 14.1 µM [quencher, side channel, partial curve]
CN(C)C(CNC(=O)CCC(=O)c1ccc(Br)cc1)c1ccccc1 (configuration not stated) | inconclusive: 15.8 µM [fluorescent, side channel, partial curve, poor fit]
Cc1c(Cl)cccc1N=c1c([N+](=O)[O-])nn(-c2ccccc2)n1O | inconclusive: 7.94 µM [quencher, side channel, partial curve]
c1ccn2cc(CSc3nnc4ccccn34)nc2c1 | inconclusive: 3.16 µM [inhibitor, partial curve]
COC(=O)[C@H](CCSC)NC(=O)c1ccc(NC[C@@H](N)CS)cc1-c1ccccc1 | inactive
O=C(/C=C\Nc1ccc2c(c1)OCO2)c1cccs1 | inconclusive: 28.2 µM [quencher, side channel, single point]
O=C(CSc1nnc(-c2ccccc2Br)o1)Nc1nncs1 | inconclusive: 28.2 µM [inhibitor, single point]
CCS(=O)(=O)NCC(c1cccnc1)N1CCN(c2ccc(OC)cc2)CC1 (configuration not stated) | inactive
COc1cccc(N2CCc3c(C)nc4ccc(Cl)cc4c32)c1 | inconclusive: 12.6 µM [inhibitor, partial curve]
COc1ccc(C(=O)N2CCN(c3nc(C4CC4)nc4sc(C)c(C)c34)CC2)cc1 | inconclusive: 3.55 µM [fluorescent, side channel, full curve, poor fit]
CN(CC(=O)N1CCN(c2ccc(F)cc2)CC1)S(=O)(=O)c1ccc(F)cc1 | inconclusive: 0.708 µM [inhibitor, full curve, poor fit]
